Experimental findings from the supplement of paper PMC7125110 are described below.

± gives the standard error. Variants at the floor of the assay are shown more often than the library holds them.

B1: glmS ribozyme (parent)
chain: AUAAAAGCGCCAGAACUACAGAAAUGUAGUUGACGAGGAGGAGGUUUAUCGAAUUUUCGGCGGAUGCCUCCAAA

Conditions in all cases: with glucosamine-6-phosphate
The variants in series [1] derive from B1. The experiment in a line: self-cleavage kobs at 640 uM GlcN6P; higher = faster cleavage; RNA array. In short, it runs like this: (§1)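 Barcoded ribozyme variants, transcribed in situ by E. coli RNA polymerase on sequenced MiSeq chips, were followed via a hybridised Cy3 probe at 37 °C. Glucosamine-6-phosphate ranged from 40 μM to 10 mM in HEPES/KCl/Mg(OAc)2 buffer. kobs came from decay fits to per-tile medians, and kcat and KM from weighted Michaelis–Menten fits.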

The variants in series [2] derive from B1. The experiment in a line: self-cleavage kobs at 160 uM GlcN6P; higher = faster cleavage; RNA array. In short, it runs like this: as §1
Series [3] covers variants of B1. Briefly: self-cleavage kobs at 2500 uM GlcN6P; higher = faster cleavage; RNA array. In short, it runs like this: as §1
Series [4] covers variants of B1. Briefly: self-cleavage kobs at 10000 uM GlcN6P; higher = faster cleavage; RNA array. In short, it runs like this:
as §1

Take A12C A33G G40A: in the series with glucosamine-6-phosphate [1], the “self-cleavage kobs at 640 uM GlcN6P” value is less than 1e-05 s⁻¹. Further, the “self-cleavage kobs at 160 uM GlcN6P” value in the series with glucosamine-6-phosphate [2] was less than 1e-05 s⁻¹. Moreover, the “self-cleavage kobs at 2500 uM GlcN6P” value with glucosamine-6-phosphate [3] was less than 1e-05 s⁻¹.
For C10G A15U G59U, the “self-cleavage kobs at 640 uM GlcN6P” value in the series with glucosamine-6-phosphate [1] was less than 1e-05 s⁻¹. Moreover, the “self-cleavage kobs at 160 uM GlcN6P” value with glucosamine-6-phosphate [2] was less than 1e-05 s⁻¹.
For the variant C11A G41A G51U, in the series with glucosamine-6-phosphate [1], the “self-cleavage kobs at 640 uM GlcN6P” value was less than 1e-05 s⁻¹.
The same measure, in the same setting: then A12C G37C G38A A64U, with less than 1e-05 s⁻¹.
As for C11U G29C G43U G44U, in the series with glucosamine-6-phosphate [1], the “self-cleavage kobs at 640 uM GlcN6P” value is less than 1e-05 s⁻¹. Also, the “self-cleavage kobs at 2500 uM GlcN6P” value in the series with glucosamine-6-phosphate [3] was less than 1e-05 s⁻¹. For the same variant, in the series with glucosamine-6-phosphate [4], the “self-cleavage kobs at 10000 uM GlcN6P” value is less than 1e-05 s⁻¹.
Turning to C11G G40C, the “self-cleavage kobs at 640 uM GlcN6P” value in the series with glucosamine-6-phosphate [1] is less than 1e-05 s⁻¹. Also, the “self-cleavage kobs at 160 uM GlcN6P” value with glucosamine-6-phosphate [2] was less than 1e-05 s⁻¹. Moreover, in the series with glucosamine-6-phosphate [3], the “self-cleavage kobs at 2500 uM GlcN6P” value was less than 1e-05 s⁻¹. In addition, the “self-cleavage kobs at 10000 uM GlcN6P” value with glucosamine-6-phosphate [4] is less than 1e-05 s⁻¹.
Take C11G U31G G44A U65C: in the series with glucosamine-6-phosphate [1], the “self-cleavage kobs at 640 uM GlcN6P” value was less than 1e-05 s⁻¹. Moreover, in the series with glucosamine-6-phosphate [2], the “self-cleavage kobs at 160 uM GlcN6P” value is less than 1e-05 s⁻¹.
On to C10G U31G, for which, in the series with glucosamine-6-phosphate [1], the “self-cleavage kobs at 640 uM GlcN6P” value was less than 1e-05 s⁻¹. Moreover, the “self-cleavage kobs at 160 uM GlcN6P” value with glucosamine-6-phosphate [2] is less than 1e-05 s⁻¹. Also, the “self-cleavage kobs at 2500 uM GlcN6P” value with glucosamine-6-phosphate [3] is less than 1e-05 s⁻¹.
Take C11U G26A G35A G60C: the “self-cleavage kobs at 640 uM GlcN6P” value in the series with glucosamine-6-phosphate [1] is less than 1e-05 s⁻¹.
As for C10G G37U G63A, the “self-cleavage kobs at 640 uM GlcN6P” value in the series with glucosamine-6-phosphate [1] was less than 1e-05 s⁻¹. In the series with glucosamine-6-phosphate [3], the “self-cleavage kobs at 2500 uM GlcN6P” value is less than 1e-05 s⁻¹.
On to A12U G41C G51C, for which the “self-cleavage kobs at 640 uM GlcN6P” value with glucosamine-6-phosphate [1] is less than 1e-05 s⁻¹.
Turning to C11G A12C A42C G60C C71U, the “self-cleavage kobs at 640 uM GlcN6P” value with glucosamine-6-phosphate [1] was less than 1e-05 s⁻¹. Besides, in the series with glucosamine-6-phosphate [3], the “self-cleavage kobs at 2500 uM GlcN6P” value was less than 1e-05 s⁻¹.
Regarding C11A A39G C61U C70G, the “self-cleavage kobs at 640 uM GlcN6P” value with glucosamine-6-phosphate [1] is less than 1e-05 s⁻¹. In addition, the “self-cleavage kobs at 160 uM GlcN6P” value with glucosamine-6-phosphate [2] was less than 1e-05 s⁻¹. Also, in the series with glucosamine-6-phosphate [3], the “self-cleavage kobs at 2500 uM GlcN6P” value is less than 1e-05 s⁻¹.
Take A12U G44A U65G C67U: in the series with glucosamine-6-phosphate [1], the “self-cleavage kobs at 640 uM GlcN6P” value turned out to be 0.000969 ± 0.00016 s⁻¹. In the series with glucosamine-6-phosphate [2], the “self-cleavage kobs at 160 uM GlcN6P” value worked out at 0.000241 ± 6.5e-05 s⁻¹.
Regarding A12C A14G C34G G38U U49G A64G, the “self-cleavage kobs at 640 uM GlcN6P” value with glucosamine-6-phosphate [1] was less than 1e-05 s⁻¹. For the same variant, the “self-cleavage kobs at 2500 uM GlcN6P” value in the series with glucosamine-6-phosphate [3] was less than 1e-05 s⁻¹.
Turning to C11G G41U C50U, in the series with glucosamine-6-phosphate [1], the “self-cleavage kobs at 640 uM GlcN6P” value was less than 1e-05 s⁻¹. The “self-cleavage kobs at 2500 uM GlcN6P” value with glucosamine-6-phosphate [3] is less than 1e-05 s⁻¹.
On to C11G C16U G35C U65A, for which, in the series with glucosamine-6-phosphate [1], the “self-cleavage kobs at 640 uM GlcN6P” value was less than 1e-05 s⁻¹.
As to C10G U31C A33C G51U C71U, the “self-cleavage kobs at 640 uM GlcN6P” value with glucosamine-6-phosphate [1] was less than 1e-05 s⁻¹. The “self-cleavage kobs at 160 uM GlcN6P” value with glucosamine-6-phosphate [2] was less than 1e-05 s⁻¹.
In the case of G13A G38C, in the series with glucosamine-6-phosphate [1], the “self-cleavage kobs at 640 uM GlcN6P” value was less than 1e-05 s⁻¹. Further, the “self-cleavage kobs at 160 uM GlcN6P” value with glucosamine-6-phosphate [2] was less than 1e-05 s⁻¹. Moreover, the “self-cleavage kobs at 2500 uM GlcN6P” value in the series with glucosamine-6-phosphate [3] was less than 1e-05 s⁻¹. The “self-cleavage kobs at 10000 uM GlcN6P” value in the series with glucosamine-6-phosphate [4] was less than 1e-05 s⁻¹.
Turning to G13A C68G C71G, the “self-cleavage kobs at 640 uM GlcN6P” value with glucosamine-6-phosphate [1] is 0.000118 ± 5e-05 s⁻¹.
Consider G13A C16A C68G, for which the “self-cleavage kobs at 640 uM GlcN6P” value with glucosamine-6-phosphate [1] worked out at 7.67e-05 ± 3.7e-05 s⁻¹.
For C11G A42U U45C G66U C70G, the “self-cleavage kobs at 640 uM GlcN6P” value with glucosamine-6-phosphate [1] is less than 1e-05 s⁻¹. Also, the “self-cleavage kobs at 2500 uM GlcN6P” value in the series with glucosamine-6-phosphate [3] was less than 1e-05 s⁻¹.
With C10U U55C G59A, the “self-cleavage kobs at 640 uM GlcN6P” value with glucosamine-6-phosphate [1] was less than 1e-05 s⁻¹. Besides, the “self-cleavage kobs at 2500 uM GlcN6P” value in the series with glucosamine-6-phosphate [3] was less than 1e-05 s⁻¹.
As to C10U A12G A42G, the “self-cleavage kobs at 640 uM GlcN6P” value with glucosamine-6-phosphate [1] was less than 1e-05 s⁻¹. Further, the “self-cleavage kobs at 160 uM GlcN6P” value with glucosamine-6-phosphate [2] is less than 1e-05 s⁻¹.
In the case of C11A A15G, the “self-cleavage kobs at 640 uM GlcN6P” value with glucosamine-6-phosphate [1] worked out at 8.86e-05 ± 1e-05 s⁻¹. Moreover, the “self-cleavage kobs at 160 uM GlcN6P” value with glucosamine-6-phosphate [2] was determined as 3.04e-05 ± 1.5e-05 s⁻¹. In the series with glucosamine-6-phosphate [3], the “self-cleavage kobs at 2500 uM GlcN6P” value came out at 0.000149 ± 1.9e-05 s⁻¹. The “self-cleavage kobs at 10000 uM GlcN6P” value in the series with glucosamine-6-phosphate [4] worked out at 0.000251 ± 3.3e-05 s⁻¹.
As to C10U G13A U56A G59U, the “self-cleavage kobs at 640 uM GlcN6P” value with glucosamine-6-phosphate [1] was less than 1e-05 s⁻¹. Moreover, the “self-cleavage kobs at 2500 uM GlcN6P” value with glucosamine-6-phosphate [3] is less than 1e-05 s⁻¹.
Regarding C11A G35C U47C U57G U65G, the “self-cleavage kobs at 640 uM GlcN6P” value with glucosamine-6-phosphate [1] was less than 1e-05 s⁻¹.
In the case of G13A C16U, the “self-cleavage kobs at 640 uM GlcN6P” value with glucosamine-6-phosphate [1] was 0.000172 ± 2.2e-05 s⁻¹. Also, in the series with glucosamine-6-phosphate [2], the “self-cleavage kobs at 160 uM GlcN6P” value was determined as 4.29e-05 ± 1.2e-05 s⁻¹. Moreover, the “self-cleavage kobs at 2500 uM GlcN6P” value with glucosamine-6-phosphate [3] is 0.000459 ± 5.5e-05 s⁻¹.
